In article PMC4336329 (PLoS ONE, 2015):
Among all 310,000 compounds or so, about 14,000 (4.5%) showed an effect of 50% or more. The effect is printed as a negative number. This is one part of the list.

Target: human ether-à-go-go-related gene (hERG) potassium channel (human, UniProt Q12809)
Assay: primary screen, population patch clamp on CHO cells stably expressing hERG
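Also: peak tail current of the secondary pulse compared with the same well before compound.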

Sequence of human ether-à-go-go-related gene (hERG) potassium channel (Q12809 whole entry, looked up): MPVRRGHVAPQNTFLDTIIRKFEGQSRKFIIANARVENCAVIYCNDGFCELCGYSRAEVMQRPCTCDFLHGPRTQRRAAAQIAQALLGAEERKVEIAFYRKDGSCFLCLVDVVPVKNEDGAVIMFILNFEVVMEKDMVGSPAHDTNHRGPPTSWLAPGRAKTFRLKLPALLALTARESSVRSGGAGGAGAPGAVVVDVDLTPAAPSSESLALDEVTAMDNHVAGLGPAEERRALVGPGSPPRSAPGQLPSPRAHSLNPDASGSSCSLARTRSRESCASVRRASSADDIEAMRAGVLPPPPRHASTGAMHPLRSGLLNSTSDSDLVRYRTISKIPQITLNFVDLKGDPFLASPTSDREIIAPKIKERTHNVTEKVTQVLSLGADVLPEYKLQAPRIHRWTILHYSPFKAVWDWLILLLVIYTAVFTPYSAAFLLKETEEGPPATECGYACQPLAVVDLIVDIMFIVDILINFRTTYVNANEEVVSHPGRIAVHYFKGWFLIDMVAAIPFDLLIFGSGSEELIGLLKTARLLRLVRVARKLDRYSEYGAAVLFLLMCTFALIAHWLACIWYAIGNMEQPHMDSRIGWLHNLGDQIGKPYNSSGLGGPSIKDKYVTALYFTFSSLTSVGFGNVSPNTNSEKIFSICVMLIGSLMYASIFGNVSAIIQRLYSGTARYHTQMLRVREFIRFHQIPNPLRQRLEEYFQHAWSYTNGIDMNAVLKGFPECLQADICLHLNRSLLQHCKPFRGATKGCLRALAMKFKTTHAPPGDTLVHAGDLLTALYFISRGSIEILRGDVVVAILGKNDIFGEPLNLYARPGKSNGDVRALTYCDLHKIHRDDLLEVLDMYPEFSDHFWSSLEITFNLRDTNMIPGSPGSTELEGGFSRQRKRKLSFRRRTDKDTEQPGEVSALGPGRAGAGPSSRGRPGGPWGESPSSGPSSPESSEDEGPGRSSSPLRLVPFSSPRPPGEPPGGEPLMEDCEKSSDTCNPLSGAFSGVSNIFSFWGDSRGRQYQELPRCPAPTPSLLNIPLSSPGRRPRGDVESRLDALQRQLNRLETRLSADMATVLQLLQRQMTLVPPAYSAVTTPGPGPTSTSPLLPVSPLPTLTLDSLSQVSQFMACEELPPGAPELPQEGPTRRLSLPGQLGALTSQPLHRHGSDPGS

Point of comparison: Cc1ccc(C(=O)NCC(=O)OCCCOC(=O)CNC(=O)c2ccc(C)c(C)c2)cc1C, “hERG current change (%, negative = inhibition) at 10uM” value -28%. Against it:
- O=C(CCN1C(=O)[C@@H]2Cc3ccccc3CN2C1=O)NCc1ccccc1Cl — higher, -4.03%
- Cc1ccc(-c2[nH]c3ccccc3c2C(C[N+](=O)[O-])c2ccco2)cc1 (centres unmarked) — higher, 8.51%
- Cc1cccc(NC(=O)c2cccc(S(=O)(=O)Nc3ccccc3C(=O)O)c2)c1 — higher, 12.2%
- c1cncc(-c2csc(-c3cccnc3)n2)c1 — higher, 13.7%
- CCCCCCCC1CC(=O)C=C(C)C1C(=O)OCC (centres unmarked) — higher, -10.2%
- CN(C)CCCN(Cc1cc2cc3c(cc2[nH]c1=O)OCCO3)C(=O)NC1CCCCC1 — higher, 8.87%
- CN(C)CCCNC(=O)CCC1CCCCC1 — higher, 7.25%
- O=C(CNC(=O)N1CC(=O)Nc2ccccc21)Nc1ccc(F)c(Cl)c1 — higher, 21.6%
- O=C(NCCN1CCOCC1)c1nn2c(c1Cl)NC(c1ccccc1)CC2C(F)(F)F (centres unmarked) — higher, -9.8%
- CCOc1ccc(NS(=O)(=O)c2cc(NC(=O)c3ccc(C)cc3)ccc2Cl)cc1 — higher, 10.9%
- CCC(/C=N/NC(=O)c1ccccc1F)CC — higher, 30.8%
- CCC(Oc1cc(Cl)ccc1Cl)C(=O)NN1C(=O)C2C3CCC(C3=C(C)C)C2C1=O (centres unmarked) — higher, 1%
- O=C(c1ccccc1-c1ncc[nH]1)N1CCCC(Nc2ccc(F)cc2)C1 (centres unmarked) — higher, 10.5%
- COc1cccc(CCNC(=O)CCc2nnc(Cc3cc(OC)ccc3OC)o2)c1 — higher, 11.1%
- CC(OC(=O)CNC(=O)c1ccc2ccccc2c1)C(=O)N(C)C1CCCCC1 (centres unmarked) — higher, -27%
- CCOC(=O)N/N=C\c1ccc(OC/C=C/c2ccccc2)cc1 — higher, 24.4%
- O=C1C(=O)N(C2CCCC2)C(=O)N1Cc1c(F)cccc1Cl — higher, 15.5%
- C[C@H](NC(=O)c1[nH]cnc1C(=O)Nc1nccs1)c1ccccc1 — higher, 3.5%
- CCS(=O)(=O)N1Cc2ccccc2CC1C(=O)OCC(=O)Nc1ccc(C)cc1 (centres unmarked) — higher, -20.4%
- N/C(COc1ncn(-c2ccccc2)n1)=N\S(=O)(=O)c1ccc(Cl)cc1Cl — lower, -49.3%
- CCOC(=O)C1=C(C)NC(=O)NC1c1ccc(N2CCC(c3ccccc3)=N2)cc1 (centres unmarked) — higher, -5.77%
- Cn1cnnc1SCC(=O)NC1CCCc2ccccc21 (centres unmarked) — higher, 16.7%
- Cc1ccc(OS(=O)(=O)c2cn(C)c(=O)n(C)c2=O)cc1C — higher, -0.493%
- CCOC(=O)CNS(=O)(=O)c1cc(-c2nn(C)c(=O)c3ccccc23)ccc1C — lower, -52.8%
- CCO[C@@H]1OC(C(=O)NC2CC2)=C[C@H](C)[C@H]1CCCO — higher, 14.4%
- COc1ccc(C2c3[nH]c4ccccc4c3CCN2CCCn2cccn2)c(F)c1 (centres unmarked) — higher, -3.85%
- Cc1cccn2c(=O)c3cc(C(=O)NC4CCCC4)c(=N)n(CCCN4CCOCC4)c3nc12 — lower, -74.7%
- O=C(NN=C1CCCC1)c1[nH]c2ccc(Br)cc2c1-c1ccccc1 — higher, 22.6%
- O=C(Nc1ccc2nn(-c3ccccc3)nc2c1)c1ccc2c(c1)OCO2 — higher, -6.91%
- Cc1cc(C(F)(F)F)nn1CC(=O)N(C)c1ccccc1 — higher, 15.4%
- CCN(CC)CCC(=O)Nc1cccc2c1C(=O)c1ccccc1C2=O.Cl — lower, -44.1%
- O=C1/C(=C/c2ccccn2)COc2ccccc21 — higher, 18.7%
- COc1ccc(N2C(=O)C3CCCN3C2c2ccccc2F)cc1 (centres unmarked) — higher, -2.76%
- O=C(CCS(=O)(=O)c1ccccc1)Nc1nc2c(s1)COc1ccccc1-2 — lower, -28.1%
- Cc1nc(-n2nnc(CO)c2CO)nc2c1CCC2 — higher, 9.54%
- CCOC(=O)c1ccccc1NC(=O)Cn1cnc2c1c(=O)n(C)c(=O)n2C — higher, -0.395%
- O=[N+]([O-])c1cccc(Nc2nc(Cl)nc(Cl)n2)c1 — higher, 14.4%
- O=C1c2cccc3cccc(c23)C(=O)N1/N=C/c1c(O)n(-c2ccccc2)c(=O)[nH]c1=O — higher, -3.66%
- COc1cc(Nc2ccc(S(N)(=O)=O)cc2)c([N+](=O)[O-])nc1[N+](=O)[O-] — higher, 17.8%
- CC(C)C(=O)N(Cc1ccc2c(c1)OCO2)Cc1ccccn1.Cl — higher, -7.53%
- Cc1ccc(-c2nc3ccccc3c(=O)o2)cc1 — higher, 21.1%
- CCCn1c(SC(C)C(=O)O)nc2ccccc21 (centres unmarked) — higher, -18.9%
- Fc1cccc(CN2CCSCC2)c1 — higher, 19%
- CCOC(=O)C1CCCN(S(=O)(=O)c2ccc(S(N)(=O)=O)cc2)C1 (centres unmarked) — higher, 10.9%
- CCOc1ccccc1N1CCN(CC(=O)Nc2ncc(C)s2)CC1 — higher, -4.05%
- S=C1NC(c2ccccc2)=NCN1c1ccccc1 — higher, 3.7%
- COc1ccc(C(=O)c2ccccc2)c(O)c1 — higher, -12.9%
- Cc1oc2cc(O)ccc2c(=O)c1N1C(=O)c2ccccc2C1=O — higher, -9.01%
- O=c1c(Cc2ccc(Cl)cc2Cl)c(O)ccn1Cc1ccncc1 — higher, 1.25%
- O=[N+]([O-])c1ccc2c(OCc3nnc(-c4ccccc4Br)o3)ncnc2c1 — lower, -74.1%
- COc1cc(/C=N/N2CCN(C3c4ccccc4-c4ccccc43)CC2)cc(OC)c1OC — higher, -7.37%
- Cc1ccc(S(=O)(=O)Nc2cccc(C(=O)NCCN3CCOCC3)c2)cc1F — higher, -1.9%
- CN1CCN(C(c2ccc(C(F)(F)F)cc2)c2ccc3cccnc3c2O)CC1 (centres unmarked) — lower, -40.4%
- CCOC(=O)c1ccc(NS(=O)(=O)c2ccc3[nH]c(=O)[nH]c3c2)cc1 — higher, 7.47%
- CC1CCC2(CC1)NC(=O)N(CC(=O)NCCc1ccc(F)cc1)C2=O (centres unmarked) — higher, -10.1%
- Cc1ccc(C(=O)Nc2nnc(CC(=O)N/N=C/c3ccncc3)s2)cc1 — higher, 19.9%
- CCOC(=O)/C(=N\Nc1cc(Cl)ccc1Cl)N1CCOCC1 — higher, 14.8%
- O=C(NCc1ccccc1)c1cccc(NS(=O)(=O)c2cccc3cccnc23)c1 — higher, 6.09%
- O=C(Nc1ccc(-c2nc3ccccc3o2)cc1)c1ccc(N2C(=O)C3C4C=CC(C4)C3C2=O)cc1 (centres unmarked) — higher, 3.26%
- CCOC(=O)/C(=C\Nc1ccccc1C(F)(F)F)Sc1ncc(C(F)(F)F)cc1Cl — higher, 12.3%
- O=C(NCC1CCCO1)c1cccs1 (centres unmarked) — higher, 4.89%
- O=C1c2cccc3c(O)ccc(c23)C(=O)N1Cc1ccccc1 — higher, 2.96%
- Cc1ccsc1CNCc1cc(Cl)ccc1O.Cl — higher, -16.6%
- COc1cccc(NC2=Nc3cccc4cccc2c34)c1 — lower, -35.9%
- CC1CC(NS(=O)(=O)c2cccs2)CC(C)(C)C1 (centres unmarked) — higher, 4.96%
- O=c1c(NCCc2ccc(Cl)cc2)c(-c2ccccc2)c1=O — higher, 5.81%
- CCn1c(COc2ccc3ccccc3c2C)nnc1SCC(=O)Nc1cccc(C(=O)O)c1 — higher, -22.3%
- COc1ccc(CNC(=O)CN(C(=O)c2csnn2)c2cccc3c2CCCC3)cc1 — higher, -14.9%
- CC(C(=O)NCC1(c2ccccc2)CCCC1)N1CCCC1.Cl (centres unmarked) — higher, -9.9%
- CCOc1ccc(NC(=O)CN(C)C(=O)COc2cccc3c2OC(C)(C)C3)cc1OCC — higher, -6.68%
- CCC1(CC)Cc2ccccc2C(CC(=O)N2CCOCC2)=N1.O=S(=O)(O)O — higher, -9.43%
- COc1cc(/C=N/NC(=O)c2ccccc2O)ccc1OCC(=O)Nc1ccccc1 — higher, 34.6%
- COCCn1c(-c2ccc(Br)cc2)csc1=Nc1cccnc1 — higher, -14.2%
- CCOC(=O)C1CCCN(C(=O)c2sc3nc(-c4ccc(OC)cc4)cn3c2C)C1 (centres unmarked) — lower, -55.4%
- CCc1cc(C(=O)c2ccc(OC)cc2)c(NC(=O)CN2CCCC2)s1 — higher, -12.4%
- Cc1ccc(C(=O)c2ccccc2C(=O)OCC(=O)N2C(C)CCCC2C)cc1 (centres unmarked) — higher, -17.6%
- COC(=O)C(C)(C)ONC(=O)Nc1ccccc1Cl — higher, 27.5%
- COc1ccc(N(CC(=O)N2CCN(c3ccccc3F)CC2)S(=O)(=O)c2ccc(C)cc2)cc1 — higher, -1.28%
- CC(NC(=O)NC(N)=O)(C(F)(F)F)C(F)(F)F — higher, -2.43%
- C=CCNC(=O)CCCOc1ccc(C)cc1 — higher, -1.82%
- CC1(C)CC2(CCCN(CC(O)(c3ccccc3)c3ccccc3)C2)CCO1.Cl (centres unmarked) — higher, 2.05%
- CCOC(=O)C(=O)NNc1cccc(C)c1C — higher, 13%
- COc1cccc(/C=N/NC(=S)Nc2cccc(C(=O)O)c2)c1 — higher, 23.8%
- CCN1CCCC1CNS(=O)(=O)c1cccc(C(F)(F)F)c1.Cl (centres unmarked) — higher, 15.7%
- O=C(NC1CCCCC1)C(=S)NCCc1ccccc1 — higher, -4.12%
- CCCCC(=O)N1CCN(c2nc3ccc(Br)cc3s2)CC1 — lower, -69.4%
- COc1ccc(N=Nc2c(C)[nH][nH]c2=O)cc1 — higher, 31.8%
- CCOc1ccc(NC(=S)N2CCN(c3ccc(N4CCOCC4)nn3)CC2)cc1 — lower, -29.8%
